Measured values as given in paper PMC4336329 (PLoS ONE, 2015).
The campaign covered roughly 310,000 compounds. About 14,000 (4.5%) showed an effect of 50% or more. The effect is printed as a negative number. This is one part of the list.

biological target: human ether-à-go-go-related gene (hERG) potassium channel (human, UniProt Q12809); assay: primary screen, population patch clamp on CHO cells stably expressing hERG
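Note: peak tail current of the secondary pulse compared with the same well before compound.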

Chain of human ether-à-go-go-related gene (hERG) potassium channel (Q12809 whole entry, looked up): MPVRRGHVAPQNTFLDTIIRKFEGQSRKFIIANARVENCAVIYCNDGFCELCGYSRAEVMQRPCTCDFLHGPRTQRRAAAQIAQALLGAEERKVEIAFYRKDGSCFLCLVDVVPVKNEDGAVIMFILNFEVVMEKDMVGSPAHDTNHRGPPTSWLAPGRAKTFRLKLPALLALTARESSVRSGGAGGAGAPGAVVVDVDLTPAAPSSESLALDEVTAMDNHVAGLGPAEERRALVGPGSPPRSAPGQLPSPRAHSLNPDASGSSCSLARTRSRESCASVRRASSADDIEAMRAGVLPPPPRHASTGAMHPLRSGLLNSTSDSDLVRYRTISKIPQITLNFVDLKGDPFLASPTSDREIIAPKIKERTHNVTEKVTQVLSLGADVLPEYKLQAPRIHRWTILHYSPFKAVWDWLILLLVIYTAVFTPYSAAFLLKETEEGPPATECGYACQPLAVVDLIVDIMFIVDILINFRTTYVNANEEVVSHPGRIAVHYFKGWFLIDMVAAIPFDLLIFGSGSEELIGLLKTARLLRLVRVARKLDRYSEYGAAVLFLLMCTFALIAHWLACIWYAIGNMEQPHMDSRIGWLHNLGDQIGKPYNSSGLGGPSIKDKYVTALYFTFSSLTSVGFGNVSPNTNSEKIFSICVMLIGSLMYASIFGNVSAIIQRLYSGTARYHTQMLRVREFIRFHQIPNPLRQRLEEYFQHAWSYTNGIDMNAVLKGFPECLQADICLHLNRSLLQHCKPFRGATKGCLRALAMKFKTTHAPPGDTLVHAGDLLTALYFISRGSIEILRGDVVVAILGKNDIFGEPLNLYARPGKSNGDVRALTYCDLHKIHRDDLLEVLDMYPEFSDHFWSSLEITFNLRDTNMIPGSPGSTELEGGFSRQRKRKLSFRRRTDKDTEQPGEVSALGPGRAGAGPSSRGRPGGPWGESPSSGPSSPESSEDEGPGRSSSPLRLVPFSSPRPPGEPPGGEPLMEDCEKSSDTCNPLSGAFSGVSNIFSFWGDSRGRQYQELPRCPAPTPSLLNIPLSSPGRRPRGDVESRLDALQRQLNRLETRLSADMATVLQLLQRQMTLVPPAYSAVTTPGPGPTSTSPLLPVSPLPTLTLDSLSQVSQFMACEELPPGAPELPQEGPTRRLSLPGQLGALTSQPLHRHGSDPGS

| Compound | hERG current change (%, negative = inhibition) at 10uM [%] |
| --- | --- |
| COc1ccc(C2CC(c3ccc(Cl)cc3Cl)n3nc(N)nc3N2)cc1 (stereo not shown) | 0.473 |
| CCN1CC(CN(C)Cc2nc(Cc3ccccc3)no2)CC1=O (stereo not shown) | 21.7 |
| Cn1c(SCC(=O)Nc2ccc(N3CCOCC3)cc2)nnc1C(F)(F)F | 8.41 |
| Cn1ncc(Cl)c1C(=O)N1CCOCC1 | 16.2 |
| O=C(CNC(=O)c1cccs1)NCC(=O)OCC(=O)c1ccc([N+](=O)[O-])cc1 | -1.59 |
| Cc1cccc(-n2ccnc2SCC(=O)c2c(N)n(C3CC3)c(=O)[nH]c2=O)c1C | -0.143 |
| CCOC(=O)c1c(C)n(C)c2ccc(OC)c(NC(=O)CN3CCCCC3)c12 | -7.45 |
| O=C1c2ccccc2C(=O)N1c1cc([N+](=O)[O-])ccn1 | 14 |
| Cc1ccc2c(c1)cc(CN(Cc1ccc3c(c1)OCO3)S(=O)(=O)c1ccccc1)c1nnnn12 | 28.5 |
| CC1Cc2cc(/C=C3/SC(N4CCC(C(N)=O)CC4)=NC3=O)ccc2O1 (stereo not shown) | -5.54 |
| Cc1ccc(CNC(=O)CCNS(=O)(=O)c2ccc(Br)s2)cc1 | 0.301 |
| O=c1nc2c(-c3cccc(Br)c3)n[nH]n2c2ccccc12 | -4.4 |
| Cn1cnc2nc3n(c2c1=O)CCC3 | 6.85 |
| CC(=O)c1c(N2CCN(C(=O)c3ccco3)CC2)nc(=S)n(-c2ccccc2)c1C | -1.95 |
| COC(=O)c1ccc(OC(=O)c2cccnc2)cc1 | 27.3 |
| CCCCNC(=O)[C@@H]1CC=C[C@@H]2CCN(C3CC3)C(=O)[C@@H]21 | 13.8 |
| CC1CC(C)CN(C(=O)Nc2ccc(Br)cc2)C1 (stereo not shown) | 6.89 |
| COc1ccc(C(=O)OCC(=O)NCc2ccccc2)c(OC)c1OC | 2.68 |
| CSc1ccc(CN2CCC(n3nccc3NC(=O)c3ccccc3C)CC2)cc1 | -75 |
| O=C(Nc1cccc(F)c1)Nc1c[nH]c(=O)[nH]c1=O | 14.8 |
| COc1ccc(S(=O)(=O)N(c2onc(C)c2Cl)S(=O)(=O)c2ccc(OC)c(OC)c2)cc1OC | 10.3 |
| COc1cccc(C(=O)NC2CC3CCCC(C2)N3CC(=O)Nc2ccccc2C(F)(F)F)c1 (stereo not shown) | 15.8 |

| Compound | hERG current change (%, negative = inhibition) at 10uM [%] |
| --- | --- |
| CN1CCN(S(=O)(=O)c2cccc(C(=O)N3CCc4ccccc43)c2)CC1 | -27.1 |
| O=C(CC1C(=O)NCCN1Cc1ccc(F)cc1)NCCN1CCCc2ccccc21 (stereo not shown) | -66.1 |
| Nc1ccc(C#Cc2c(-c3ccsc3)oc3ccc(N4CCOCC4)cc23)cc1 | 5.98 |
| Cc1c(C(=O)N2CC[C@@H](N3CCC(O)CC3)[C@H](O)C2)[nH]c2ccc(Cl)cc12 | -14.9 |
| O=C(NCc1ccccc1OC(F)(F)F)C1CCC(=O)N(CCc2ccccn2)C1 (stereo not shown) | 13.8 |
| O=S(=O)(NCCCN1CCN(c2ccccc2F)CC1)c1cccc2cccnc12 | -37.6 |
| CCCc1[nH]n(-c2nc3ccccc3s2)c(=O)c1C=NCCCN(CC)CC | -75.9 |
| CCC(Oc1ccccc1)C(=O)NC1CCCCCC1 (stereo not shown) | -0.406 |
| Cc1ccc(C)c(NC(=O)Cn2nnc(C(=O)NCc3cccs3)c2N)c1 | 10.4 |
| COc1ccc2c(=O)cc(-c3ccccc3)n(C)c2c1 | -26.3 |
| C=CCn1c(C)cc(C2=NNC(=Nc3ccc(C)cc3)SC2)c1C | 8.86 |
| C=CCn1c(SCC(=O)N2CCCCC2)nc(O)cc1=O | 3.13 |
| COC(=O)c1cccc(Oc2nc3c(c(=O)n(C)c(=O)n3C)n2C(C)C)c1 | 10.3 |
| COc1ccccc1OCCNC(=O)C(CCSC)NC(=O)c1ccccc1Cl (stereo not shown) | -2.15 |
| COc1ccccc1-n1c(CNC(=O)c2ccco2)nnc1SCC(=O)Nc1ccc(F)cc1 | -16.4 |
| O=S(=O)(c1ccc(Br)s1)N1CCN(CCc2ccccc2)CC1 | 26 |
| CCc1nnc(NC(=O)C2CC(=O)N(C3CCCCC3)C2)s1 (stereo not shown) | 19.8 |
| COCCCn1cnnc1SCc1nc2sc(C(C)=O)c(C)c2c(=O)[nH]1 | -17 |
| COc1ccc(CCNS(=O)(=O)c2ccc3c(c2)NC(=O)CCS3)cc1OC | 15.3 |
| Fc1ccc(/C=N/n2c(COc3ccccc3)n[nH]c2=S)cc1 | 26.1 |
| CCCn1c(=S)[nH]c2cc(C(=O)N3CCN(c4ccccc4OC)CC3)ccc2c1=O | 2.53 |
